Experimental findings from PMC4336329 (PLoS ONE, 2015) are described below.

Among all 310,000 compounds or so, about 2,200 (0.71%) showed an effect of 50% or more. Effects have a minus sign here. Some of the results follow.

The target of the assay is human ether-à-go-go-related gene (hERG) potassium channel (human, UniProt Q12809). The assay can be described thus: primary screen, population patch clamp on CHO cells stably expressing hERG.
Sequence of human ether-à-go-go-related gene (hERG) potassium channel (Q12809 whole entry, looked up): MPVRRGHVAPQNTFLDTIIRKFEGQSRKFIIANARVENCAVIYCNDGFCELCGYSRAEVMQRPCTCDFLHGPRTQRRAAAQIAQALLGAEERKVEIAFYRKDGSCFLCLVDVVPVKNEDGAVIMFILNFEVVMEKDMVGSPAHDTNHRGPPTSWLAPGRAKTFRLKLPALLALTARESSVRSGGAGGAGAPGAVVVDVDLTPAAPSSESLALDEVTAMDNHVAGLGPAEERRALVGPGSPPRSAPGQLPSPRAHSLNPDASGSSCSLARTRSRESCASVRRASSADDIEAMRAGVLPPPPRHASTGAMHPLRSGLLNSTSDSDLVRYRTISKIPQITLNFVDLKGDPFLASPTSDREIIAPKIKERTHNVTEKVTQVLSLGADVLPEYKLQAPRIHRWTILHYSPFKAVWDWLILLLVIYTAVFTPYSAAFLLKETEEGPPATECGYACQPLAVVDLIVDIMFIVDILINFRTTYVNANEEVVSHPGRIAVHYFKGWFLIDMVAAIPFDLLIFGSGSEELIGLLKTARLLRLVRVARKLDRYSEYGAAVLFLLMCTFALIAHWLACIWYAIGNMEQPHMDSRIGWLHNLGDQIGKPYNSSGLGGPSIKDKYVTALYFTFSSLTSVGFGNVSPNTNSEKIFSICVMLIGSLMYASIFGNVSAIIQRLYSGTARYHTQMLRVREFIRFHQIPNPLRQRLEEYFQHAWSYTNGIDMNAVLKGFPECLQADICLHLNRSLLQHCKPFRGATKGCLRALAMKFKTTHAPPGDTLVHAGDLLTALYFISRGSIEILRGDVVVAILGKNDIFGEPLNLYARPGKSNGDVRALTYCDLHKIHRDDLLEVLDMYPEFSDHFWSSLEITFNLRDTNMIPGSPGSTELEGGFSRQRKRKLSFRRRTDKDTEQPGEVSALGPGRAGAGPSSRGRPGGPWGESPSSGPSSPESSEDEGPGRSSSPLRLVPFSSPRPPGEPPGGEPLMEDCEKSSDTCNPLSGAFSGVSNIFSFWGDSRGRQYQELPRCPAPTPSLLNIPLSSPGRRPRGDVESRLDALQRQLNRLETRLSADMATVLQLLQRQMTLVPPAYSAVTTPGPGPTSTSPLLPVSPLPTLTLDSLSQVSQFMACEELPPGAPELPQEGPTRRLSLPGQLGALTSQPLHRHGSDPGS
For the compound `Cn1nnnc1Sc1ncnc2scc(-c3ccccc3Br)c12`, the “hERG current change (%, negative = inhibition) at 1uM” value is reported as 17.9%.
On to `N#CCc1nc(C(c2ccccc2)c2ccccc2)no1`, for which the “hERG current change (%, negative = inhibition) at 1uM” value is reported as 11.3%.
The value for `Cc1ccc(OCc2nnc(SCC(=O)O)n2-c2ccccc2)cc1` was 15.1%; that for `COc1ccc(CCn2c(-c3ccc(F)cc3)nc3c(c(=O)c4ccccc4n3C)c2=O)cc1OC` was 11.1%.
Consider `O=C(NC(=S)NNC(=O)[C@H]1C[C@@H]1c1ccccc1)c1ccc(F)cc1`, for which the “hERG current change (%, negative = inhibition) at 1uM” value was 8.06%.
The value for `Cn1cc(Br)c(C(=O)N2CCN(c3cccc(Cl)c3)CC2)n1` was 1.75%; that for `Nc1c(S(=O)(=O)[O-])cc(NC(=O)c2ccccc2)c2c1C(=O)c1ccccc1C2=O.[Na+]` was 7.18%.
The value for `CCOC(=O)C1=NNC(C(=O)c2ccccc2)C1c1ccc(Cl)cc1` (centres unmarked) was 14.8%; that for `CCOc1ccc(S(=O)(=O)NCC(=O)N(C)Cc2cccnc2)cc1` was 4.32%; that for `O=[N+]([O-])c1ccc(Nc2ccc(N3CCOCC3)cc2)c([N+](=O)[O-])c1` was 12.6%.
With `O=C(C1CCN(S(=O)(=O)N2CCCCC2)CC1)N1CCCCC1`, the “hERG current change (%, negative = inhibition) at 1uM” value is listed as 7.74%.
Take `O=C(Nc1cccnc1Oc1ncnc2cc(Cl)ccc12)c1ccc(F)cc1`: the “hERG current change (%, negative = inhibition) at 1uM” value turned out to be 2.09%.
`COC(=O)c1cccc(CSc2nnc(-c3ccco3)n2-c2ccccc2)c1`: the “hERG current change (%, negative = inhibition) at 1uM” value is given as -8.32%.
Take `CC(C)(C)S(=O)(=O)c1cnc(N2CCCC2)nc1N`: the “hERG current change (%, negative = inhibition) at 1uM” value was determined as 10.1%.
The result for `CCOC(=O)c1c(-c2ccccc2)oc2ccc(O)c(CN(C)C)c12` reads -2.31%; that for `CCC1(c2ccc(F)cc2)NC(=O)N(CC(=O)Nc2ccc(C)c(S(=O)(=O)N3CCOCC3)c2)C1=O` (centres unmarked), 8.83%.
For the compound `Cc1c(Nc2nc(-c3ccccc3)cs2)c(=O)n(-c2ccccc2)n1C`, the “hERG current change (%, negative = inhibition) at 1uM” value was determined as 5.67%.
The value for `CC1CCCN(CC(=O)c2ccc(Cl)c(Cl)c2)C1` (centres unmarked) was 3.63%.
For the compound `O=C(O)c1ccc2c(=O)n3c(nc2c1)/C(=C/c1cccc(O)c1)CC3`, the “hERG current change (%, negative = inhibition) at 1uM” value came out at 15.3%.
The value for `CCOC(=O)C1(Cc2ccc(OC)cc2)CCN(C(=O)Cc2cccnc2)CC1` was 4.38%; that for `COc1ccccc1C(=O)NC(=O)Nc1cccc(Cl)c1` was 7.09%; that for `Oc1ccc2c(c1)C1CCCC1(N1CCOCC1)O2` (centres unmarked) was 6.86%.
As for `CCOc1ccc(N2C(=O)CC(N)C2=O)cc1` (centres unmarked), the “hERG current change (%, negative = inhibition) at 1uM” value worked out at 5.8%.
As to `CCC(C(=O)OCC(=O)Nc1ccc(C)c(S(=O)(=O)N2CCOCC2)c1)c1ccccc1` (centres unmarked), the “hERG current change (%, negative = inhibition) at 1uM” value is -17.1%.
As to `Cc1cccc(-c2nnc(-c3cccc(NC(=O)Cc4cccs4)c3)o2)c1`, the “hERG current change (%, negative = inhibition) at 1uM” value came to 15.4%.
Regarding `Cc1ccc(NC(=O)Nc2ccc(C(=O)N3CCOCC3)cc2)cc1`, the “hERG current change (%, negative = inhibition) at 1uM” value worked out at 2.37%.
The value for `S=c1[nH]nc(-c2ccc3c(c2)OCO3)n1-c1ccccc1` was 18.1%.
The value for `COc1ccc(Cc2c(O)[nH]c(=S)[nH]c2=O)cc1` was 11%; that for `CC(C)(C)NS(=O)(=O)c1cc2c3c(c1)CCN3C(=O)CC2` was 17.1%.
As for `O=C(Nc1nnc(SCc2ccc(F)cc2)s1)C1=COCCO1`, the “hERG current change (%, negative = inhibition) at 1uM” value worked out at 7.59%.
The result for `CN(C)S(=O)(=O)c1ccc2oc(SCC(=O)Nc3ccccc3F)nc2c1` reads 3.67%; that for `CC(=O)Nc1ccc(OCC(O)Cn2nc(C)c(C(C)=O)c2C)cc1` (centres unmarked), 6.18%.
Take `Oc1c(Cl)cc(Cl)cc1C=Nc1ccccc1N1CCCC1`: the “hERG current change (%, negative = inhibition) at 1uM” value was 0.193%.
The value for `N#Cc1sc2nc(N3CCCCC3)c3c(c2c1N)CCCC3` was 3.55%.
For the compound `Cl.Nc1ccc2nc(CN3CCOCC3)[nH]c2c1`, the “hERG current change (%, negative = inhibition) at 1uM” value worked out at 11.4%.
For `CC(=O)C1=C(C)Nc2ncnn2C1c1ccccc1OCc1ccccc1` (centres unmarked), the “hERG current change (%, negative = inhibition) at 1uM” value is recorded as 13.5%.
The value for `Cc1ccc(NC(=O)Nc2nnc(Cc3ccc(F)cc3)s2)cc1` was 13.9%; that for `CS(=O)(=O)N1CCN(Cc2ccccc2C(F)(F)F)CC1` was 2.42%; that for `COc1ccccc1C(=O)NNC(=O)C(=O)NC(C)(C)C` was 14.8%.
The value for `CCOc1ccccc1NC(=O)CN(c1ccc(OC)cc1)S(=O)(=O)c1c(C)[nH]c(=O)[nH]c1=O` was 13.4%; that for `Cc1cccc(NC(=O)CSc2nc(N)c(NC(=O)c3cccs3)c(=O)[nH]2)c1` was 11.3%; that for `COc1ccc(C(=O)CCc2ccccc2O)c(OC)c1` was 13.6%.
With `COCCCN1C(=O)/C(=C\c2ccc3c(c2)OCO3)C(C(=O)OC)=C1C`, the “hERG current change (%, negative = inhibition) at 1uM” value amounted to 6.26%.
The result for `COc1ccc2c(c1)C(=O)N(Cc1ccccc1)C(=O)C2(C)C` reads 8.81%.
